Results reported in paper PMC4336329 (PLoS ONE, 2015).
Hit rate of the full screen: of about 310,000 compounds, about 14,000 (4.5%) showed an effect of 50% or more. Effects have a minus sign here. The list shows a part of the results.

Molecular target: human ether-à-go-go-related gene (hERG) potassium channel (human, UniProt Q12809)
Test: primary screen, population patch clamp on CHO cells stably expressing hERG
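Further: peak tail current of the secondary pulse compared with the same well before compound.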

Sequence of human ether-à-go-go-related gene (hERG) potassium channel (Q12809 whole entry, looked up): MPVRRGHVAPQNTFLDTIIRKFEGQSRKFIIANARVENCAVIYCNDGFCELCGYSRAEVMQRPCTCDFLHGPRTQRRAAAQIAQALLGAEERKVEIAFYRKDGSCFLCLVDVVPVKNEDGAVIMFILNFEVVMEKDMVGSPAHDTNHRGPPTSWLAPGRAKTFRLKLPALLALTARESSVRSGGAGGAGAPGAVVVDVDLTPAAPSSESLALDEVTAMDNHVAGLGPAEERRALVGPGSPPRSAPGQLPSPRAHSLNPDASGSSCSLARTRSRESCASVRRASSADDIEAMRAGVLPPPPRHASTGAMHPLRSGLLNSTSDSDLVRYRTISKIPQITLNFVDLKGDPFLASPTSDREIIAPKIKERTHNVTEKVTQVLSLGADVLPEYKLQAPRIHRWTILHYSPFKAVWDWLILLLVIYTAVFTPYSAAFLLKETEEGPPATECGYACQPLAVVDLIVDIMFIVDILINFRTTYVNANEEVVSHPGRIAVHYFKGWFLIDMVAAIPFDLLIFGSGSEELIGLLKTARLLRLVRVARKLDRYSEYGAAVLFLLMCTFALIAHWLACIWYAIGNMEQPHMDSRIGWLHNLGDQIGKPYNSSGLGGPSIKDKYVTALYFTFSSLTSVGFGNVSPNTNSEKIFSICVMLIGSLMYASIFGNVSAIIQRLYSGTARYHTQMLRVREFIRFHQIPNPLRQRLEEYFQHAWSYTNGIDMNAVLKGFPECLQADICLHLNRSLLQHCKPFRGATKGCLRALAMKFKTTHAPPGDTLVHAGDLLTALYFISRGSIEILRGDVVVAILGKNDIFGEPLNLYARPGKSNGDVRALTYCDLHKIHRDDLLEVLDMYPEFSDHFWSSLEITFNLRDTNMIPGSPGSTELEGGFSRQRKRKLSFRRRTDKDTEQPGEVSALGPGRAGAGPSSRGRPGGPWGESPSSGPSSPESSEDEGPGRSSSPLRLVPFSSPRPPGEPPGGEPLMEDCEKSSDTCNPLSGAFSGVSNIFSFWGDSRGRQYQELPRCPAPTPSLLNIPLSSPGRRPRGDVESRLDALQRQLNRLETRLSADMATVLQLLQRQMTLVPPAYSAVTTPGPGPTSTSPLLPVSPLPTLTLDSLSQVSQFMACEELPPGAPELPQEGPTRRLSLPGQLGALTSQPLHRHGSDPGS

Row | Compound | hERG current change (%, negative = inhibition) at 10uM
1 | CCN(C(=S)Nc1ccccc1F)C1CCCCC1 | -0.0217%
2 | CC1(C)CC(=O)C2=C(C1)N(Cc1ccco1)C(=O)C2(NC(=O)c1ccc(Cl)cc1Cl)C(F)(F)F (stereo not drawn) | -4.46%
3 | Cc1cc(C)c(NC(=O)COc2cccnc2[N+](=O)[O-])c(C)c1 | 7.86%
4 | Cc1cccn2c(CNCC3(c4ccccc4)CCCC3)c(C(=O)N3CCOCC3)nc12 | -10.1%
5 | COCc1cc(C)nc(SC)c1C#N | 16.1%
6 | Cc1ccc(Cn2cnc3c(nnn3Cc3ccc(Cl)cc3)c2=O)cc1 | 3.9%
7 | O=C(Nc1cccc(S(=O)(=O)N2CCOCC2)c1)c1ccc(Cl)c([N+](=O)[O-])c1 | 18%
8 | CCC(CC)C(=O)NCc1ccc(Cl)cc1 | 4.47%
9 | Cc1cc(C)cc(Oc2coc3cc(OC(=O)c4cccs4)ccc3c2=O)c1 | -0.857%
10 | Cc1ccc(C(=O)N2CCN(c3ccc([N+](=O)[O-])c(NCc4cccnc4)c3)CC2)cc1 | -59.4%
11 | CC1(C(=O)N2CC3(CC(c4cccc([N+](=O)[O-])c4)=NO3)C[C@H]2C(=O)NCC(N)=O)CC1 (stereo partly drawn) | 4.52%
12 | Cc1ccc(NS(=O)(=O)c2ccc(NC(=O)C3CC3)cc2)c(C)c1 | 10.3%
13 | CCc1ccccc1NC(=O)c1ccccc1N1C(=O)C2C3C=CC(C3)C2C1=O (stereo not drawn) | 18.3%
14 | Cc1cccc(N2C(=O)C3C(c4ccccc4)OC4(C(=O)c5ccccc5C4=O)C3C2=O)c1 (stereo not drawn) | 14.9%
15 | COC(=O)C1=C(N)Oc2cc(C)n(Cc3cccnc3)c(=O)c2C1c1ccccc1OC (stereo not drawn) | -7.68%
16 | CCC1(C)N=C(c2ccc3c(c2)OCO3)CC(c2ccccc2O)N1 (stereo not drawn) | 2.42%
17 | O=C(NCc1ccc(F)cc1)c1cnc(Cl)c(Cl)c1 | -6.81%
18 | COc1ccc(OC)c(C(c2c(C)[nH][nH]c2=O)c2c(C)[nH][nH]c2=O)c1 | 31.1%
19 | Cc1ccc(NC(=S)NCC2CCN(C(C)c3ccccc3)C2)cc1C (stereo not drawn) | -44.6%
20 | COc1ccccc1N1CCN(C(=O)c2ccc(CSc3ccccc3)cc2)CC1 | 2.7%
21 | O=C(COC(=O)/C=C/c1ccccc1[N+](=O)[O-])NCC1CCCO1 (stereo not drawn) | 7.22%

Row | Compound | hERG current change (%, negative = inhibition) at 10uM
22 | COc1ccc(/C=C2\S/C(=N/S(=O)(=O)c3cccs3)NC2=O)cc1 | 8.45%
23 | O=C(NCc1ccco1)c1cc([N+](=O)[O-])ccc1N1CCCCC1 | -40.5%
24 | CC(C)Cn1c(-c2ccco2)csc1=Nc1cccnc1 | 8.45%
25 | CC(C)C(=O)Nc1ccc(C(=O)N/N=C/c2cc(Br)cc(Br)c2O)cc1 | 0.959%
26 | CCOc1cc(C=C2C(=O)NC(=O)NC2=O)ccc1OCC(=O)N1CCOCC1 | 7.28%
27 | Nc1cc(S(=O)(=O)Nc2cc(Cl)ccc2Cl)ccc1N1CCCC1 | -0.665%
28 | COC(=O)C1=C(C)NC(=O)C1(NC(=O)c1cccnc1)C(F)(F)F (stereo not drawn) | -13%
29 | Cc1ccc(NC(=O)N/C=C/c2ccc(Cl)cc2)cc1 | 22.7%
30 | Cc1ccc(C2C(C(=O)c3sc(C)nc3C)=C(O)C(=O)N2CCN2CCOCC2)o1 (stereo not drawn) | 6.3%
31 | CC1(C)CC1C(=O)Nc1ccc([N+](=O)[O-])cc1Br (stereo not drawn) | -9.3%
32 | COc1ccc(NC2=C(NC(C)=O)C(=O)c3ccccc3C2=O)cc1 | 13.5%
33 | COc1cc(-c2nnc(-c3cccs3)o2)cc(OC)c1OC | 21.8%
34 | CN1CCN(NC(=O)c2cccc(Br)c2)CC1 | -6.19%
35 | COc1ccc(N2CCN(S(=O)(=O)c3cnc[nH]3)CC2)cc1 | 4.1%
36 | O=C(O)c1cnn(-c2nc(-c3ccc(Br)cc3)cs2)c1C(F)(F)F | 18.9%
37 | O=C(NCC1CCCO1)C(c1ccc(N2CCOCC2)cc1)N(C(=O)Cn1nnc2ccccc21)c1ccccc1F (stereo not drawn) | 5.36%
38 | O=C(O)c1cccc(N=C2NC(=O)C(CO)(CO)S2)c1 | 14.4%
39 | NC(=O)[C@@H]1CCCNc2c(I)cc([N+](=O)[O-])cc2C(=O)N[C@@H](CCC(=O)O)C(=O)N[C@@H](CO)C(=O)N1 | 6.26%
40 | CNc1nc(Nc2ccc([N+](=O)[O-])cc2)nc(OCC(F)(F)F)n1 | 4.67%
41 | Cc1ccc2c(c1)C1(OCCO1)C(=O)N2 | 10.4%
42 | CCCN1CCN(CCNC(=O)Nc2ccccc2Cl)CC1 | -6.78%
